Values joined by “and” are separate entries in the source; they are usually repeats but may differ in a detail not shown here. Equal entries are not always repeated.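 Cells were grown in 96-well plates and exposed to each compound for 48 hours at five concentrations; endpoints were interpolated linearly between bracketing concentrations, or set to the highest concentration if not reached. GI50 marks 50% less growth. At the TGI there is no net growth.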 Numbered stars: 1 amine (or outer) side, 2 acyl side, 3 side chain; on linkers, the order of the positions; unused ones are H or OH. Bridge positions count the residues as written; N and C are the ends. Square brackets hold non-standard residues; d marks the D form. Peptide text beside a SMILES is read from it. * marks the point of attachment. ξ: configuration not given here. X32 = CC[C@H](C)[C@@H](N[*:1])[C@@H](O)CC(=O)O[C@H](C(=O)[C@H](C)C(=O)[*:2])C(C)C; NMeY = CN[C@@H](Cc1ccc(O)cc1)C(=O)O; ξNMeF = CNC(Cc1ccccc1)C(=O)O; NMeV = CN[C@H](C(=O)O)C(C)C; Boc = CC(C)(C)OC(=O)*; OBn = c1ccc(CO*)cc1

The subject of this test is NCI-H322M lung. Briefly: NCI tumour cell line growth inhibition, 48 h.
As to `COC(=O)c1c[nH]c2cc(OC(C)C)c(OC(C)C)cc2c1=O`, the GI50 was above 100 µM and the TGI is above 100 µM. Turning to `CC[C@H](C)[C@@H]([C@@H](CC(=O)N1CCC[C@H]1[C@H](OC)[C@@H](C)C(=O)NCCc1ccccc1)OC)N(C)C(=O)C(NC(=O)[C@H](C(C)C)N(C)C)C(C)C` (stereo partly specified), the GI50 is 0.000225 µM and the TGI came to 2.92 µM. On the same counts, the results for `Cc1ccc(C[As+](c2ccccc2)(c2ccccc2)c2ccccc2)cc1` are 3.56 µM and above 76.1 µM. Regarding `Cc1[nH]c(C)c(CN(C)C)c1CN(C)C`, the TGI is above 100 µM. Same read-out and setting: under `NS(=O)(=O)c1ccc(N=Nc2ccc[nH]c2=O)cc1` stands above 100 µM; under `CC1(C)OCC(CO)(CO)CO1`, above 100 µM.

`C=C1c2nc3ccccc3n2C=C(c2ccccc2)N1c1ccc(Cl)cc1` had a TGI above 100 µM. With `C=C1C(=O)O[C@H]2[C@H]1CC/C(COC(=O)c1cccnc1N)=C\CC[C@@]1(C)O[C@@H]21`, the GI50 is 10.5 µM and the TGI amounted to 26.2 µM. On the same counts, the results for `COc1cccc(Nc2ncnc3cc(NC(=O)CCl)ccc23)c1` are 2.29 µM and 5.72 µM. Turning to `CCOC(=O)C1=C(C)N(c2ccc(Cl)cc2)C2(O)C=CC(=O)C3=C(O)c4ccccc4C(=O)C312` (stereo unspecified), the TGI is 35 µM.

Molecule `CCOC(=O)C1=C(OC(OCC)C([Se]c2ccccc2)C(C)C)CCC1` (stereo unspecified) returned a TGI above 100 µM. The same measure, in the same setting: under `Cc1ccc(S(=O)(=O)OCOS(=O)(=O)c2ccc(C)cc2)cc1` stands above 100 µM; under `CCCC(=O)OCC1OC(n2cc(F)c(=O)[nH]c2=O)CC1O` (stereo unspecified), above 10 µM. On to `COc1ccc(Oc2nc3cc(N)cc(N)c3nc2-c2ccccc2)cc1`, for which the GI50 is above 100 µM and the TGI was above 100 µM.

Turning to `O=S(=O)(NC1=NCCN1C(=S)SN1CCn2c1nsc2=S)c1ccc(Oc2ccccc2)cc1`, the GI50 is above 100 µM and the TGI is above 100 µM. Consider `C=C(C)[C@H]1CC[C@@]23O[C@@H]2[C@@H](C[C@@]2(C)CC(=O)[C@H](CC(=O)C1)O2)OC(=O)[C@@]12CC[C@H](C(=C)C)CC(=O)C[C@H]4O[C@](C)(CC4=O)C[C@@H](OC3=O)[C@@H]1O2`, for which the TGI was above 100 µM. The same measure, in the same setting: under `N#Cc1c(Cl)cc(C#N)n2c1nc1ccccc12` stands 63 µM.

With `COc1cc(C(=O)/C=C/c2cc(-c3ccc4c(c3)OCO4)n[nH]2)cc(OC)c1OC`, the GI50 is 2.1 µM and the TGI was 6.25 µM. In the case of `COc1ccccc1-n1nnc2c(N)nc(N)nc21`, the TGI is above 100 µM. `COc1ccc(Cc2cc(Cc3ccc(OC)cc3)cc(Cc3ccc(OC)cc3)c2)cc1` came in with a TGI above 100 µM. On the same count and under the same terms, under `COC(=O)[C@@H]1CN(C(=O)CCc2ccccc2)C(=O)N1` stands above 100 µM. Still for that read-out and setting: for `CC1(C)c2ccccc2N2C(c3ccccc3)=NOC21C` (stereo unspecified) the value was above 100 µM. As to `O=C(Nc1nc(-c2ccc(Cl)cc2)cs1)c1cc(O)c(O)c(O)c1`, the GI50 was 519 µM and the TGI turned out to be 3920 µM. In turn, `CC1(c2ccccc2)O[C@@H]2C[C@H]3[C@@H]4CCC5=CC(=O)C=C[C@]5(C)[C@@]4(F)[C@@H](O)C[C@]3(C)[C@]2(C(=O)CO)O1` (stereo partly specified) gave a TGI of 37.8 µM. Still for that read-out and setting: for `[N-]=[N+]=NC1C(O)C(CO)OC1n1ccc(N)nc1=O` (stereo unspecified) the value was above 539 µM. Same read-out and setting: for `CCN(CC)C1Oc2cc3c(cc2C(c2cc(OC)c(O)c(OC)c2)C1C)OCO3` (stereo unspecified) the value was 98.7 µM; for `C=C(COCO)C(C)=O`, 98.7 µM. On to `COc1cc(-c2nn(-c3ccc(NC(=O)Nc4cc(C(F)(F)F)cc(C(F)(F)F)c4)cc3)cc2-c2ccncc2)ccc1Cl`, for which the GI50 is 2.3 µM and the TGI was determined as 6.09 µM. Molecule `CN(C)NC(=O)/C(=C/c1ccc(Cl)cc1)NC(=O)c1ccccc1` gave a TGI above 100 µM. Regarding `CC12OC(CC(O)C1O)n1c3ccccc3c3c4c(c5c6ccccc6n2c5c31)C(=O)N(CCN1CCOCC1)C4=O` (stereo unspecified), the GI50 is 1.76 µM and the TGI is 9.15 µM.

For `CNC(=O)C(C)Oc1ccc(OCC2CCCCC2)cc1` (stereo unspecified), the TGI is above 100 µM. Still for that read-out and setting: for `O[C@@]1(C#Cc2ccc3c(c2)OCO3)CCC[C@H]1NCc1ccccc1` the value was above 100 µM; for `Cn1nnc2c(C(N)=S)ncn2c1=O`, above 100 µM. `Cc1nc2nc(C)n(CCN3CCOCC3)c(=O)c2c(-c2cccc([N+](=O)[O-])c2)c1C(=O)CCCCCCCCCCN1CCC(c2ccccc2)(c2ccccc2)CC1`: the GI50 is 2.02 µg/mL and the TGI turned out to be 3.97 µg/mL. Take `Cc1cc(N2CCOCC2)nc2ccc(Cc3ccc4nc(N5CCOCC5)cc(C)c4c3)cc12`: the TGI was above 100 µM. On the same count and under the same terms, for `CC[C@H](C)[C@H]1NC(=O)[C@@H](N)[C@@H](C)OC(=O)[C@H](Cc2ccc(OC)cc2)N(C)C(=O)[C@@H]2CCCN2C(=O)[C@H](CC(C)C)NC(=O)[C@@H](C)C(=O)[C@H](C(C)C)OC(=O)C[C@@H]1O` (H-T[X32]LP[NMeY](Me); ester 1-C) the value was above 100 µM; for `O=C(c1cscc1CCc1ccccc1)c1cscc1CCc1ccccc1`, above 100 µM; for `CC(C)[C@@H](C(=O)N(C)[C@H](C(=O)N1CCC[C@H]1C(=O)OCc1ccccc1)C(C)C)N(C)C(=O)C(Cc1ccccc1)N(C)C(=O)[C@H](NC(=O)OC(C)(C)C)C(C)C` (stereo partly specified) (Boc-[dV][ξNMeF][NMeV][NMeV]P-OBn), above 31.6 µM. Turning to `CC(=O)[CH-]C(=O)c1ccccc1.CC(=O)[CH-]C(=O)c1ccccc1.Cl.[O-]c1ccnc2ccccc12.[O-]c1ccnc2ccccc12.[Ti+4]`, the GI50 is 72.8 µM and the TGI was above 100 µM. On the same counts, the results for `CCCCC(=O)N(c1ccc(Nc2c3ccccc3nc3cc([N+](=O)[O-])ccc23)cc1)S(C)(=O)=O` are 18.4 µM and above 81.5 µM. For `NS(=O)(=O)c1nnc(NS(=O)(=O)c2ccccc2[N+](=O)[O-])s1`, the TGI is above 100 µM.

Regarding `O=C1C=C(NCCO)c2nccc3c2c1nc1ccccc13`, the GI50 is 27 µM and the TGI turned out to be 98.8 µM. Regarding `CC(=O)OCC1OC(n2c(C)c(C(C)=O)c(-c3ccco3)c(C#N)c2=S)C(OC(C)=O)C(OC(C)=O)C1OC(C)=O` (stereo unspecified), the TGI is above 100 µM.

As to `Cc1cc(O)ccc1C1=NN(c2ccc(S(N)(=O)=O)cc2)C(=O)CC1`, the GI50 was > 50 µM and 54.7 µM; the TGI was above 100 µM. For the molecule `Cc1ccc(N)cc1[As]=[As]c1cc(N)ccc1C` (stereo unspecified), the GI50 is 2.54 µM and the TGI is 5.81 µM. On to `COc1ccc2c(c1)CCc1c-2[nH]c2cc3c(cc2c1=O)OCO3`, for which the TGI was above 100 µM. On to `CN(c1ccccc1)c1cc2ccccc2nn1`, for which the TGI is above 100 µM. Same read-out and setting: for `CC(=O)OCC1OC(n2cccnc2=O)C(OC(C)=O)C1OC(C)=O` (stereo unspecified) the value was above 100 µM. The molecule `COC(=O)C1(C(=O)OC)N=C(C)OC1c1ccccc1O` (stereo unspecified) gave a TGI above 100 µM. Same read-out and setting: under `CSC1=NN(C(C)=O)C(C(OC(C)=O)C(OC(C)=O)C(OC(C)=O)C(COC(C)=O)OC(C)=O)S1` (stereo unspecified) stands above 100 µM.

On to `Nc1[nH]nc2nc(-c3cc(Cl)ccc3Cl)cc(-c3ccc(F)cc3)c12`, for which the GI50 is 29 µM and the TGI is 90 µM. Consider `CCO/C(O)=C(/C(=N)N1CCOCC1)C(=O)NC(C)C`, for which the TGI was above 100 µM. The same measure, in the same setting: for `COc1ccc(CN2C(=O)[C@@H]3Cc4c(OC)c(C)c(OC)c(OC)c4[C@H](/C2=C\c2cc(OC)c(OC)c(C)c2OC)N3C(=O)OC(C)C)cc1` the value was above 100 µM; for `Cc1cc(C)c(NS(=O)c2cccc(C(F)(F)F)c2)c(C)c1` (stereo unspecified), above 100 µM; for `C[C@@H]1S[C@H](c2c(F)cccc2Cl)n2c1nc1ccccc12`, 37 µM.

The molecule `C/C(=C\COP(=O)(O)OP(=O)(O)O)CCCCCCOCc1ccccc1` registered a TGI above 100 µM. The molecule `c1ccc(C2=NOC3C4CCC(C4)C23)cc1` (stereo unspecified) yielded a TGI above 100 µM.

Molecule `CSc1c(C#N)c(=O)n(N)c2c1c(C)nn2-c1ccccc1` registered a TGI of 85.1 µM. Still for that read-out and setting: for `O=C1CSC(c2ccccc2O)N1c1ccc2c(c1)Oc1c(Cl)c3c(c(Cl)c1=N2)Oc1cc(N2C(=O)CSC2c2ccccc2O)ccc1N=3` (stereo unspecified) the value was above 100 µM. On to `COc1cc2c(cc1OC)C(C(CCCCCC(CCC(C)C)C1NCCc3cc(OC)c(OC)cc31)CCC(C)C)NCC2` (stereo unspecified), for which the GI50 is 1.67 µM and the TGI came out at 3.26 µM. The molecule `O=C(Sc1c(-c2ccccc2)c(=O)n(-c2ccccc2)c(=S)n1-c1ccccc1)c1ccccc1` showed a TGI above 100 µM.

`CCOC(=O)c1ncn(CCc2ccc(Cl)cc2)c1C` registered a TGI above 100 µM.

In the case of `CNC(=O)ON(C(C)=O)C(=O)NC`, the TGI stood at 221 µM. In turn, `COc1ccc(-c2sc(Br)c3c2C(=O)C2OC(=O)NC32)cc1OC` (stereo unspecified) registered a TGI above 100 µM. In the case of `CCn1cc(CNc2ccc(C(=O)Nc3cc4cc(OC)c(OC)cc4c(C)n3)cc2)c(C)n1`, the GI50 is above 100 µM and the TGI is above 100 µM. As to `c1ccc(-c2[nH]ncc2-c2ccnc(-c3ccc(OCCN4CCOCC4)cc3)c2)nc1`, the GI50 was above 25 µM and the TGI is above 25 µM.

`C=C1CC(OC)(C(OC)C(=O)N[C@H]2OCO[C@H]3C2O[C@H](C[C@@H](COC)OC)C(C)(C)C3OC)O[C@H](C)[C@@H]1C` (stereo partly specified) gave a TGI of 9.36 µM. In turn, `ICC1CCCO1` (stereo unspecified) had a TGI above 100 µM. On the same count and under the same terms, under `Cc1ccccc1NC(=O)Cc1nc2ccccc2s1` stands 37.5 µM; under `N#Cc1c2ccccc2c(Cc2ccc3c(c2)OCCOCCOCCOCCOCCO3)c2ccccc12`, 29.3 µM. For `Nc1ccccc1C#C/C=C\C#Cc1ccccc1C#CCO`, the GI50 was 2.22 µM and the TGI stood at 13 µM. The like results for `C[C@@H](Nc1cc(F)cc(F)c1)c1cc(C(=O)N(C)C)cc2c(=O)cc(N3CCOCC3)oc12` were, in that order, 3.5 µM and above 69 µM. As to `CCN(CC)C(=O)CCn1cc(F)c(=O)[nH]c1=O`, the TGI was above 100 µM. The same measure, in the same setting: under `C/C=C/C(=O)Oc1cccc2cccnc12` stands above 88.2 µM. On the same count and under the same terms, for `CCCCCCCCOC(=O)C12Oc3ccc(-c4ccc5c(c4O)C(O)=C4C(=O)CC(C)C(O)C4(C(=O)OCCCCCCCC)O5)c(O)c3C(O)=C1C(=O)CC(C)C2O` (stereo unspecified) the value was above 100 µM; for `C[C@]12CC[C@H](O[C@@H]3O[C@H](CO[C@@H]4O[C@H](CO)[C@@H](O)[C@H](O)[C@H]4O)[C@@H](O)[C@H](O)[C@H]3O)C[C@@H]1CC[C@@H]1[C@@H]2CC[C@]2(C)[C@@H](C3=CC(=O)OC3)CC[C@]12O`, above 91.3 µM. On the same count and under the same terms, for `CC(O)CNC(=O)Nc1c(C(F)(F)F)cc(-c2ccccc2)[nH]c1=O` (stereo unspecified) the value was above 100 µM. In the case of `CC(=O)OC1CCC2OOC1O2` (stereo unspecified), the TGI is above 100 µM.

(Values after PubChem BioAssay (NCI).)
